According to PubChem BioAssay AID504333 (National Center for Advancing Translational Sciences (NCATS), 2011):
Hit rate of the full screen: of about 360,000 compounds, about 16,000 (4.4%) were called active. The shares of active, inactive and inconclusive entries below differ from those in the screen. Calls follow the shape of the dose curve; as a rule, active = well fitted inhibition curve with a large enough effect; inconclusive = small, poorly fitted or top-dose-only effect; inactive = no such curve, though single readings can be large or run the other way. Potencies of inconclusive entries are doubtful fits and often do not repeat.

Target: Bromodomain adjacent to zinc finger domain protein 2B (Homo sapiens) (UniProt Q9UIF8)
Assay: qHTS Assay for Inhibitors of BAZ2B; also: nearly all actives have a fitted effect of over 60% in size
Conditions: AlphaScreen BAZ2B-H3K14Ac peptide displacement; activity change, negative = inhibition: at 114 µM (top of the series)
Procedure, shortened: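 Inhibition is scored as reduced AlphaScreen emission. The BAZ2B/b-H3(5-23)K14Ac complex (50 nM each) in PBS pH 7.4, 0.01% Tween-20 meets compound (up to 110 uM) for 30 min at RT before bead addition.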
% is scaled to controls: 0 for no effect and ±100 for the full control effect; potency is read from the fitted curve at half-maximal effect; tags tell the direction and shape of the fitted curve.

Chain of UniProt Q9UIF8 (Q9UIF8 whole entry, looked up, the tested form may be a part): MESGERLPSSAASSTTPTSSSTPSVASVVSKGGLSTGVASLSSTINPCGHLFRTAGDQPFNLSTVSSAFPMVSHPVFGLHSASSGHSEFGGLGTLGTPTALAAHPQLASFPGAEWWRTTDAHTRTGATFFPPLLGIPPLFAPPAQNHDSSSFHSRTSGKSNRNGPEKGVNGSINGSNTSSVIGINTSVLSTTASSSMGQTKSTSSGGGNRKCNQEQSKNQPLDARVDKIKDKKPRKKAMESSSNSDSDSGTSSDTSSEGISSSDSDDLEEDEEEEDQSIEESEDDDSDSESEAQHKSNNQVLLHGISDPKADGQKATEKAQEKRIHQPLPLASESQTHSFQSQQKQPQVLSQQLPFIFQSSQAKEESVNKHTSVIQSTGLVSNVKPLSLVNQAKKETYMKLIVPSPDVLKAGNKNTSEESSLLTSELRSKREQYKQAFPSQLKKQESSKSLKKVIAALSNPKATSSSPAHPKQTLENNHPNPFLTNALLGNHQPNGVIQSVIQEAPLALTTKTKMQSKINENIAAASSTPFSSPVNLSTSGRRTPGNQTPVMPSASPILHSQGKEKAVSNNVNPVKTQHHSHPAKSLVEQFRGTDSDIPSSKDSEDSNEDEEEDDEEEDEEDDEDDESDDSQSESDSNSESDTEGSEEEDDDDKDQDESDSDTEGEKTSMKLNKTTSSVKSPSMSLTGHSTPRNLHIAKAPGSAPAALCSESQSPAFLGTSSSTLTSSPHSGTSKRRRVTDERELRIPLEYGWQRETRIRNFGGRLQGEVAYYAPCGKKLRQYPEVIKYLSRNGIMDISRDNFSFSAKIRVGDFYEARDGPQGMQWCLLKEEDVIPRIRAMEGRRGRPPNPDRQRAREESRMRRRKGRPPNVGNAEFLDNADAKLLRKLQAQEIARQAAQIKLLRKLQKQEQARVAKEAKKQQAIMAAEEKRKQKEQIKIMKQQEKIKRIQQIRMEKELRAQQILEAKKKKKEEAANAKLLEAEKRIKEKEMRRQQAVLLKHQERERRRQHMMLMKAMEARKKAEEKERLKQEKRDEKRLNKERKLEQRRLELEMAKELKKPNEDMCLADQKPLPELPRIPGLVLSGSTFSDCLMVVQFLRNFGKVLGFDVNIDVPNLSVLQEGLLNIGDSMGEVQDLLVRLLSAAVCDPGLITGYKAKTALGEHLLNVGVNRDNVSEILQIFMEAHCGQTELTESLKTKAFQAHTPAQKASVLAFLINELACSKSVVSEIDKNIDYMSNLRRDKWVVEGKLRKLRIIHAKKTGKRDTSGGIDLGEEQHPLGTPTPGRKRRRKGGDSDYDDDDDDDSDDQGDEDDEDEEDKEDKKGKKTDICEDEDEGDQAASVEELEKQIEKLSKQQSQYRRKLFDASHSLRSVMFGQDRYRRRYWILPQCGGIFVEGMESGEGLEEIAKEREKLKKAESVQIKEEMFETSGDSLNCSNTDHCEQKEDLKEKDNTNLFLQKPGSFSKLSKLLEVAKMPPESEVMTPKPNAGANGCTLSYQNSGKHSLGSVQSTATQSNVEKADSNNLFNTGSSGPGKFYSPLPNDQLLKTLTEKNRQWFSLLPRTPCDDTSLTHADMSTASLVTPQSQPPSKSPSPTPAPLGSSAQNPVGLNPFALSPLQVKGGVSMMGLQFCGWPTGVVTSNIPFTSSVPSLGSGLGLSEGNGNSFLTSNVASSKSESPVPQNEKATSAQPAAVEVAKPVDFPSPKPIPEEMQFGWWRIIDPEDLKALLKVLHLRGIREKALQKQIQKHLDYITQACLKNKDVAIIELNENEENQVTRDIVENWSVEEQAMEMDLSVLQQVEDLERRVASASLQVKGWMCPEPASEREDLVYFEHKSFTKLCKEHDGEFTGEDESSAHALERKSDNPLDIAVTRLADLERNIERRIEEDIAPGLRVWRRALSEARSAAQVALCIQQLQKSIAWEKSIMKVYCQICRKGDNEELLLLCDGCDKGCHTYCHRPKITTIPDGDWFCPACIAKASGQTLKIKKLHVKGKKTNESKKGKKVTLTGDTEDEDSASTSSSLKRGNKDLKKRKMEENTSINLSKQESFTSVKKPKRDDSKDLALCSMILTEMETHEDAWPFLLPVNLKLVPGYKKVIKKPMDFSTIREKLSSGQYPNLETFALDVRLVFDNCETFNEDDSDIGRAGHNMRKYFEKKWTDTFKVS

Compound	Potency	activity change, negative = inhibition
O=C(NCC1CCCO1)C1CCN(CC2CCCCC2)CC1 (configuration not stated)	inconclusive: 89.1 µM [inhibitor, single point]	
CCn1c(C(=O)NCc2cc(Br)ccc2OC)cc2oc3ccccc3c21		inactive: -19.5%
O=C(CSc1nnc(-c2cccnc2)o1)NNC(=O)c1ccc(Br)cc1		inactive: 21%
COc1ccc(S(=O)(=O)n2c([N+](=O)[O-])cnc2C)cc1OC	active: 79.4 µM	
CCS(=O)(=O)N1CCC(C(=O)Nc2cccc(F)c2)CC1		inactive: 3.36%
O=C(NN1C(=O)C2CC=C(Cl)CC2C1=O)c1ccncc1 (configuration not stated)	inconclusive: 56.2 µM [inhibitor, partial curve, poor fit]	
CCN(CC)Cc1c(O)c(Cl)cc2c(C)cc(=O)oc12	active: 56.2 µM	
CCOC(=O)c1sc2nc(CSc3ccccc3)nc(N3CCCN(C)CC3)c2c1C	active: 50.1 µM	
O=c1cc(Cn2ccnc2)c2cc(O)ccc2o1	inconclusive: 89.1 µM [inhibitor, single point]	
O=C(OCC(=O)N1CCN(Cc2ccccc2)CC1)c1cc(Cl)ccc1[N+](=O)[O-]		inactive: -36.4%
CCS(=O)(=O)N1CCN=C1SCc1ccc(F)cc1		inactive: -2.06%
CCCn1nc(NS(=O)(=O)c2cccc3nonc23)c2cc3cccc(C)c3nc21	inconclusive: 44.7 µM [inhibitor, partial curve]	
CCc1ccc(C(C(=O)NCc2ccccc2)N(C(=O)c2csnn2)C2CC2)cc1 (configuration not stated)		inactive: 0.313%
COc1ccc(OC)c(NC(=O)CN(Cc2ccccc2)S(C)(=O)=O)c1	inconclusive: 89.1 µM [inhibitor, single point]	
O=C(O)c1cccnc1SCC(=O)N1CCCc2ccccc21	active: 79.4 µM	
CCOC(=O)CN1C(=O)S/C(=C/c2ccc(OC)c([N+](=O)[O-])c2)C1=O		inactive: 5.56%
C/C(=N\Nc1ccc(Cl)c(C(=O)O)c1)c1ccc(Br)s1	inconclusive: 44.7 µM [inhibitor, partial curve]	
Oc1c(CN2CCc3ccccc3C2)cc(Cl)c2cccnc12	active: 8.91 µM	
COC(=O)c1cc(-c2ccc(S(=O)(=O)N3CCCC3)cc2)c(C(F)(F)F)s1	inconclusive: 89.1 µM [inhibitor, single point]	
C=CCn1c(NC(=O)CC)c(C(=O)OCC)sc1=S	inconclusive: 35.5 µM [inhibitor, single point]	
CCCn1c(=O)n(C)c(=O)c2c(SC(C)C(=O)NCC3CCCO3)nc(CC(C)C)nc21 (configuration not stated)		inactive: 4.26%
CN(C)c1ccc(NC(=O)COC(=O)CCC(=O)c2ccc(F)cc2)cc1	inconclusive: 50.1 µM [inhibitor, partial curve]	
